Where a name gives a salt, the structure may show the parent alone.
Test system: polyclonal antibodies (RS2708 raised against the immunogen of Example 11)
Assay: Cross-reactivity on biochip platform (Evidence Investigator), Hapten 2-HRP conjugate vs cross-reactant
Conditions: Table 3, concentration at which a negative response was elicited
Method: The antibody (RS2708) used to generate the data in the tables below (each of the Tables) was raised from immunogen 2 (Example 11) and the HRP tracer was prepared as in Example 12. With the exception of the data in Table 3, all IC50 and cross reactivity data were generated using the immunoassay of Example 13. The data in Table 3 were generated using the same antibody (RS2708) raised from immunogen 2 (Example 11) and the HRP tracer (Example 12) but were generated on a different immunoassay platform.
To test the cross-reactivity of the antibodies against a range of compounds, they were first immobilized on a biochip platform (9 mm×9 mm) (Randox Laboratories Ltd.), which was the vessel for the immunoreactions. The semi-automated bench top analyser Evidence Investigator was used (EV3602, Randox Laboratories Ltd., Crumlin, UK, patents—EP98307706, EP98307732, EP0902394, EP1227311, EP1434995 and EP1354623). The assay principle is based on competition for binding sites of the polyclonal antibodies (RS2708 raised against the immunogen of Example 11) between free antigen (cross-reactants) and labelled conjugate (Hapten 2-HRP, prepared as in Example 12). Assay dilutent (155 μl), calibrator/25I-NBOMe or potential cross-reactant (25 μl) followed by Hapten 2-HRP conjugate (120 μl) were added to the appropriate biochip. The biochips were then incubated for 30 minutes at 30° C. on a thermo-shaker set at 370 rpm. The biochips were then subjected to 2 quick wash cycles using the wash buffer provided, followed by 4×2 minute wash cycles. 250 μl of signal (1:1 luminol+peroxide, v/v) was then added to each biochip, and after 2 minutes the biochip carrier was imaged in the Evidence Investigator analyser. The system incorporates dedicated software to automatically process, report and archive the data generated (details can be found in FitzGerald, S. P. et al, Clin. Chem. 51(7); 1165-1176; 2005).

Row | SMILES | NEG RESPONSE Tested at Conc [ng/mL]
1 | CC(N)Cc1ccccc1 (racemic) [(±) Amphetamine] | 16
2 | C[C@H](N)C(=O)c1ccccc1.Cl (racemic) [(±) Cathinone HCl] | 16
3 | CC(N)Cc1ccc2c(c1)OCO2 (racemic) [(±) MDA] | 16
4 | CCc1cc(OC)c(CCN)cc1OC [2C-E HCl] | 16
5 | CCCSc1cc(OC)c(CCN)cc1OC.Cl [2CT-7 HCl] | 16
6 | CNC(C)C(=O)c1cccc(F)c1 (centres unmarked) [3-Fluoromethcathinone] | 16
7 | c1ccc(CN2CCNCC2)cc1 [BZP] | 16
8 | C[C@@H](N)Cc1c2ccoc2c(Br)c2ccoc12 [Bromo-Dragonfly] | 16
9 | CCC(NC)C(=O)c1ccccc1 (centres unmarked) [Buphedrone] | 16
10 | CCC(NC)C(=O)c1ccc2c(c1)OCO2.Cl (centres unmarked) [Butylone HCl] | 16
11 | COc1cc(CCN)c(OC)cc1Br [Compound 2C-B] | 16
12 | COc1cc(CCN)c(OC)cc1I [Compound 2C-I] | 16
13 | CC(N)Cc1ccc2occc2c1 (centres unmarked) [Compound 5-APB] | 16
14 | CC(N)Cc1ccc2c(c1)CCO2 (centres unmarked) [Compound 5-APDB] | 16
15 | CC(N)Cc1ccc2[nH]ccc2c1 (centres unmarked) [Compound 5-IT] | 16
16 | CNC(C)Cc1ccc2occc2c1 (centres unmarked) [Compound 5-MAPB] | 16
17 | CC(N)Cc1ccc2ccoc2c1 (centres unmarked) [Compound 6-APB] | 16
18 | C[C@H](N)Cc1ccccc1 [D-Amphetamine] | 16
19 | COc1cc(CC(C)N)c(OC)cc1Br (centres unmarked) [DOB, 2,5-Dimethoxy-4-bromoamphetamine] | 16
20 | CCc1cc(OC)c(CC(C)N)cc1OC (centres unmarked) [DOET] | 16
21 | COc1cc(CC(C)N)c(OC)cc1C (centres unmarked) [DOM] | 16
22 | CN[C@@H](C)[C@H](O)c1ccccc1 [Ephedrine] | 16
23 | CCNC(C)C(=O)c1ccc2c(c1)OCO2.Cl (centres unmarked) [Ethylone HCl] | 16
24 | CCNC(C)Cc1cccc(C(F)(F)F)c1 (centres unmarked) [Fenfluramine] | 16

Row | SMILES | NEG RESPONSE Tested at Conc [ng/mL]
25 | CNC(C)C(=O)c1ccc(F)cc1.Cl (centres unmarked) [Flephedrone HCl] | 16
26 | CNC(C)Cc1ccc2c(c1)OCO2 (centres unmarked) [MDMA] | 16
27 | CCC(C(=O)c1ccc2c(c1)OCO2)N1CCCC1 (centres unmarked) [MDPBP] | 16
28 | CC(C(=O)c1ccc2c(c1)OCO2)N1CCCC1.Cl (centres unmarked) [MDPPP HCl] | 16
29 | CCCC(C(=O)c1ccc2c(c1)OCO2)N1CCCC1 (centres unmarked) [MDPV] | 16
30 | CNC(C)C(=O)c1ccc(C)cc1 (centres unmarked) [Mephedrone] | 16
31 | CNC(C)C(=O)c1ccccc1 (centres unmarked) [Methcathinone] | 16
32 | CCNC(C)C(=O)c1ccc(C)cc1.Cl (centres unmarked) [Methylethcathinone HCl] | 16
33 | CNC(C)C(=O)c1ccc2c(c1)OCO2 (centres unmarked) [Methylone HCl] | 16
34 | COC(=O)C(c1ccccc1)C1CCCCN1 (centres unmarked) [Methylphenidate] | 16
35 | CCNC(C)Cc1ccccc1 (centres unmarked) [N-Ethylamphetamine] | 16
36 | CCNC(C)C(=O)c1ccccc1 (centres unmarked) [N-Ethylcathinone] | 16
37 | COc1ccc(CC(C)N)cc1.Cl (centres unmarked) [PMA HCl] | 16
38 | CNC(C)Cc1ccc(OC)cc1.Cl (centres unmarked) [PMMA HCl] | 16
39 | CC(C)(N)Cc1ccccc1 [Phentermine] | 16
40 | CN[C@@H](C)[C@@H](O)c1ccccc1 [Pseudoephedrine] | 16
41 | CN[C@H](C)C(=O)c1ccccc1.Cl [R(+)Methcathinone HCl] | 16
42 | COc1ccccc1CNCCn1c(=O)[nH]c2ccccc2c1=O [RH-34] | 16
43 | CN[C@@H](C)Cc1ccccc1 [S(+)Methamphetamine] | 16
44 | CN[C@@H](C)C(=O)c1ccccc1 [S(−)Methcathinone] | 16
45 | FC(F)(F)c1cccc(N2CCNCC2)c1 [TFMPP] | 16
46 | COc1cc(CC(C)N)cc(OC)c1OC (centres unmarked) [TMA] | 16
47 | Clc1cccc(N2CCNCC2)c1 [mcPP] | 16

— patent publication US9720005B2, “Immunoassay for compounds of the NBOMe family” (Randox Laboratories Limited, priority 2014, dated 2017)
